Test [1] has as its target endogenous RBM4 (human (endogenous in A549)) (UniProt Q9BWF3). Nature of the test: proximity ligation; endogenous proteins in fixed, permeabilised A549 cells; Duolink kit (DUO92101); for SRSF1 and LC3 in the absence or presence of HBSS and CQ for 4 h.
Test [2] concerns the target endogenous PIK3C3 (human (endogenous in H1299 and A549)) (UniProt Q8NEB9). The description is as above.
Test [3] has as its target Flag-Beclin1 (UniProt Q14457). As to the kind of experiment: co-IP; 293 T cells (also H1299 cells) co-transfected; lysis buffer 50 mM Tris/HCl pH 7.5, 150 mM NaCl, 1 mM EDTA, 1% Triton X-100; Anti-FLAG M2 beads at 4 °C overnight; five washes with TBS, 0.1% Triton X-100; western blot.
The target in test [4] is Flag-PIK3C3 (UniProt Q8NEB9). The description is as above.
Test [5] has as its target Flag-Bcl-xS (UniProt Q07817). Described as above.

By UniProt entry, the sequences of proteins in these tests, tags left out. Where a name states a change or a piece, a line headed by the entry shows the natural chain unless it says otherwise. Chains listed by the source or under a name are the forms on record and can include a tag or linker.
UniProt Q9BWF3: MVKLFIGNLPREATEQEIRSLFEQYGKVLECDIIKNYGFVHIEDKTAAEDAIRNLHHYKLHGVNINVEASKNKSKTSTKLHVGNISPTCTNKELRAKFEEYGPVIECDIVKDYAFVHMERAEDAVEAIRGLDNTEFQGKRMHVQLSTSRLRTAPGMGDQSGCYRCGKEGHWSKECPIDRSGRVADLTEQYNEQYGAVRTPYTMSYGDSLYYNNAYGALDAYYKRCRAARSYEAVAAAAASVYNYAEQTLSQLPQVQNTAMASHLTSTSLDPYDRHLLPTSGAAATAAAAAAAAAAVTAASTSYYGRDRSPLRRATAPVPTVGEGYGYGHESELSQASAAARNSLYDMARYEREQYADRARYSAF
UniProt Q8NEB9: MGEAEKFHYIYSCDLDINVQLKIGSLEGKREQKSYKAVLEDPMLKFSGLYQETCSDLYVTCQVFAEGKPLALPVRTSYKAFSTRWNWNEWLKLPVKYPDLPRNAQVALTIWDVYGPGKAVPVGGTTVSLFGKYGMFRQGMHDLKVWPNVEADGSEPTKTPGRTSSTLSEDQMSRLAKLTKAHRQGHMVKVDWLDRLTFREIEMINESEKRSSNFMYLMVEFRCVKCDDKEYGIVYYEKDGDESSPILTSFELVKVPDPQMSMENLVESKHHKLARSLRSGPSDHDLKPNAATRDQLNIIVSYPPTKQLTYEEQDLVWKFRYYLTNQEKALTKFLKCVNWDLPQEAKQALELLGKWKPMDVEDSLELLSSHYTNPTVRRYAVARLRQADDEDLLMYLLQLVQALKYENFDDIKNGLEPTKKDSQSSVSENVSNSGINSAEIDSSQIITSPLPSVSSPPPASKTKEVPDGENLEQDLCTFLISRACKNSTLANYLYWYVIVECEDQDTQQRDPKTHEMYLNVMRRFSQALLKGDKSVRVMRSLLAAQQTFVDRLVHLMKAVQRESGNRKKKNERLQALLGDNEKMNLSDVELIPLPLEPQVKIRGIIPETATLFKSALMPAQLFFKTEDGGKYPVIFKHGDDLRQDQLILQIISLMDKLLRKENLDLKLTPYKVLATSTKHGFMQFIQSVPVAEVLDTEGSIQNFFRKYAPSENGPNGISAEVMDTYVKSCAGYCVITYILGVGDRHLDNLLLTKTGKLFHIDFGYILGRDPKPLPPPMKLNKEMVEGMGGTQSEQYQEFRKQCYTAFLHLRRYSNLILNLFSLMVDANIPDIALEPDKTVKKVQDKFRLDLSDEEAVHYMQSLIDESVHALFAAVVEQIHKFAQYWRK
UniProt Q14457: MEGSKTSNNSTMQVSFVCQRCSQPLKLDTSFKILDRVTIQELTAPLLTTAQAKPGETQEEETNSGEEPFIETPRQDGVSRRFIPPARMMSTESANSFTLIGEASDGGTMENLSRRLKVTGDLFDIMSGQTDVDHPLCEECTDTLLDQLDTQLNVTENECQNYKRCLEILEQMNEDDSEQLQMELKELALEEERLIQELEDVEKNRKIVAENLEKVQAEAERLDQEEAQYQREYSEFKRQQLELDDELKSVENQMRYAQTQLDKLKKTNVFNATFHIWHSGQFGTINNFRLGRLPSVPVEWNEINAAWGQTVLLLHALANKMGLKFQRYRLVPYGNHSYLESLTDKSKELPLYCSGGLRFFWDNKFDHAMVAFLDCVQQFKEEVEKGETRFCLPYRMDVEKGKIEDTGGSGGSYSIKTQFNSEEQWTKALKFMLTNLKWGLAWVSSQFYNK
Flag-Bcl-xS (Q07817, form named): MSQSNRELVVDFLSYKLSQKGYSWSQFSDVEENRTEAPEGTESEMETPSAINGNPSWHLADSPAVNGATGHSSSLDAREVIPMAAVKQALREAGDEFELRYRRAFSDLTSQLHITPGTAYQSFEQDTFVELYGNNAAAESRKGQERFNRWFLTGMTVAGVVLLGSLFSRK
UniProt Q07955: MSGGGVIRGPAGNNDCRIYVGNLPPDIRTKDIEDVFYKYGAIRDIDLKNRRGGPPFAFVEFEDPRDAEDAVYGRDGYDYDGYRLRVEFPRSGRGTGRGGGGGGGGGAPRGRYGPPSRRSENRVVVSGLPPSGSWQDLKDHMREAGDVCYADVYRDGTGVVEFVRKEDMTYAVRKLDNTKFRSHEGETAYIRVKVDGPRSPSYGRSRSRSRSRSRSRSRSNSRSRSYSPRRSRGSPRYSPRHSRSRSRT

Results are given in words; binding and its absence hold for the method and conditions named. Binding seen in cells or lysates may run through a third protein. Some results given as binding are weak or reduced against the parent protein; the word gives no strength.

These results are taken from paper PMC7933324.

Turning to “endogenous SRSF1 (from UniProt Q07955 1-248)”, the binding result in test [1] and in test [2] was “binds” in each case.
Take “pEGFP-C1-SRSF1 (from UniProt Q07955 1-248)”: the figures for the binding entry in test [3] and in test [4] were “no binding” and “binds”, respectively.
On to “pEGFP-C1-Beclin1 (from UniProt Q14457 1-450)”, for which the binding entry in test [5] is given as “no binding”.
